Test results taken from the supplement of paper PMC10126150.
Sequences with one replicate were seen in a single cluster, so their values are uncertain.

Tested on: ATP
Test: switch fluorescence ratio, 500 uM ATP over buffer (Cy3 cluster intensity, sum of 5 cycles each) (fold (ratio)); higher = stronger signal-on switching upon ATP binding; sequences stand for … in TCGTCGGCAGCGTCAGATGTGTATAAGAGACAGTTTTTTTTTTTTTTTTTTTTTTTTT…TC
Conditions: aptamer strand: ATP DNA aptamer (quencher-CACCTGGGGGAGTATTGCGGAGGAAGG + anchor), 100 nM annealed; ATP concentration: 500 uM; one replicate
Summary of the method: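 Cy3-labelled switching-strand clusters on a modified Illumina MiSeq flow-cell were annealed to 100 nM quencher-labelled ATP aptamer and imaged first in selection buffer, then after 15 min with 500 uM ATP at 22 °C. NaOH stripping and re-annealing separated each of five buffer/ATP cycles, and clusters outside 100-1000 RFU were excluded. The fluorescence ratio sums target-cycle Cy3 intensity over buffer-cycle Cy3 intensity per cluster and averages it per switch-domain sequence.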
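Note: ATP exposure 15 min at 22 °C before imaging.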

| Sequence | switch fluorescence ratio |
| --- | --- |
| ATTGGGGGCA | 0.978 |
| GCCTACGAG | 1.09 |
| TTATAGAACT | 1.01 |
| TTATGGTCGA | 0.961 |
| CAAGGAAATG | 0.997 |
| TTTGATTTC | 1.01 |
| GCAAAAAGA | 1.5 |
| CAAAGGATTC | 0.993 |
| ATTGTCTTAT | 1.01 |
| CAGTAGGACA | 0.994 |
| ATGGTCGTTC | 0.978 |
| GCTGGGTGAC | 0.975 |
| CAAAGCGCCG | 1.04 |
| TAGGGCTGAG | 1.01 |
| GTGATTTTTC | 0.924 |
| TAAGTAATTG | 1.05 |
| CATAAAGTAA | 1.04 |
| GAACCCCGT | 0.973 |
| TTTAACGACT | 1.03 |
| CAGGCTGATG | 1.01 |
| TAGCTAATGT | 1.02 |
| GTCGTGGGA | 1.04 |
| GAGGCGTATG | 0.982 |
| GGTGGTTGCT | 0.98 |
| GGGTAACCCG | 1.02 |
| CGTCATCGGT | 0.962 |

| Sequence | switch fluorescence ratio |
| --- | --- |
| CCGCTAAGTT | 1.88 |
| AATTGCGACA | 1.03 |
| ACATCCTGGT | 0.998 |
| CTCTGGCCAA | 2.37 |
| CAAGTGATCA | 0.986 |
| TTTCATCCAC | 1.18 |
| GCAATGCGGA | 3.4 |
| TTAATTTAGC | 1.01 |
| CCCTTCCGTG | 2.12 |
| ACCGCAACAT | 3.56 |
| TAGTTATTAA | 1.02 |
| GCGAGAGCCT | 1.02 |
| GTGCTGGGGA | 0.99 |
| TATATGATTT | 1.03 |
| GGGTACCGGG | 1 |
| TCTTGAGATT | 0.956 |
| ATCATCACT | 1.07 |
| TTAGGCGGTC | 1.04 |
| CACGGCGCAA | 0.848 |
| GATGTTACTT | 1.01 |
| CATTCCTTAC | 2.22 |
| GGTGGTGCAT | 0.998 |
| ACGGTAGAAG | 1.09 |
| TACTGGTT | 1.02 |
| GCATTAAAA | 0.99 |
| GAGATAATGA | 1.03 |

| Sequence | switch fluorescence ratio |
| --- | --- |
| ATTATTCGG | 1.01 |
| CCAGGAGCCC | 1.13 |
| TGTGAATCGT | 0.996 |
| CGGAATAAGC | 1.22 |
| CACTAATACG | 1.15 |
| TTAGCAACCG | 1.33 |
| GCAGTGGTCG | 1.01 |
| CCTACGGCCT | 1.52 |
| AAATCCCGTT | 1.12 |
| TAACTACATG | 0.992 |
| CCAGGCGTCG | 1.01 |
| ACGTCGGTCG | 1.02 |
| AGGTGGGCTC | 0.945 |
| AAACATTTGT | 1.01 |
| ATCAGAATCT | 0.999 |
| ATTTCGAGCC | 1.05 |
| ATGTTGTGGA | 0.961 |
| TGCACGGCAA | 1.15 |
| GGACACAGAG | 1.02 |
| ATCGTCGAGT | 0.967 |
| TCCGTAGCGC | 1.06 |
| GAGAGTGGCC | 0.935 |
| ATGACCTGCC | 3.04 |
| GTTTCGGCCC | 1.01 |
| GCACTGAGCT | 1.05 |
| ATGGGTGGGA | 1.02 |

| Sequence | switch fluorescence ratio |
| --- | --- |
| CCAGATTTAC | 1.02 |
| CGGGTCCTGT | 0.967 |
| TCTCTATTGT | 0.996 |
| TACAGCATTA | 1.06 |
| GGCCCCAAAA | 1.28 |
| TCATTCTAGC | 0.935 |
| GAGTAAAAGT | 0.974 |
| AACAAGGAA | 0.975 |
| GCGTACTAAA | 1.01 |
| TACGCTAGAT | 1.12 |
| ATCATAAATG | 1.03 |
| CAGGTCTACA | 1.07 |
| GTCGACTCGC | 0.995 |
| CAAGAAAACG | 0.984 |
| AGACGTCCCG | 1.07 |
| AGGTGTGGAC | 0.967 |
| CATTTGTTGC | 1.03 |
| ATTCGTAATT | 0.998 |
| CCCTATATC | 1.11 |
| CCCCCCTATG | 1.3 |
| CAAGGGAGTT | 1.01 |
| AACTATTATA | 1.02 |
| CCTAGGTACA | 1.1 |
| ATTACGCGGG | 1.03 |
| TAAGAGGAC | 0.955 |
| ATAATTTGGA | 1.01 |

| Sequence | switch fluorescence ratio |
| --- | --- |
| CGATGAAGGA | 1.03 |
| CATGTTCGAT | 0.93 |
| TTACCGGACA | 1.17 |
| GAACCCGAGG | 1.04 |
| ATCCTTCTAT | 0.971 |
| GACTCGGCCT | 1.04 |
| AGACAGGCTT | 1.05 |
| AGGAAGGATT | 1.1 |
| CGCACGTGAC | 1.62 |
| TTGTGCGGGC | 1.01 |
| CTATTTCATG | 0.993 |
| CGTGCAGAGG | 1 |
| GGACGGGTCC | 1.03 |
| AGTATCACAT | 0.995 |
| AACTCTGGCA | 1.01 |
| AGTACGCTC | 1.08 |
| GTAATAAAGT | 1 |
| AATGGGTGTT | 0.991 |
| CGGCAAGT | 1.23 |
| ATAATGGGAT | 0.975 |
| AGGGGAGTCT | 1 |
| ATGACACATG | 0.981 |
| TTGGTCACTC | 0.973 |
| CACTCTACCT | 1.32 |
| AGCTTCGTGA | 1.03 |
| TCTAGGTGTT | 1.37 |

| Sequence | switch fluorescence ratio |
| --- | --- |
| GCGGGTATGC | 1 |
| TTAAAACCAG | 0.997 |
| CACACCAGGT | 3.97 |
| AAGTAGTACA | 1.04 |
| GGGTCATTCC | 1.12 |
| ACCGAAGAGA | 1.01 |
| CATATTTACC | 1.06 |
| GTGAGCTGGC | 1.04 |
| TTTGGATAAT | 0.952 |
| GCATCTGCTC | 1.03 |
| TAGTGAGTTA | 0.992 |
| TACCTTCTAC | 1.87 |
| TGGCCGAAGT | 1.07 |
| CGAAAGGAAT | 0.996 |
| TGGATATTAT | 1.01 |
| TCGACGTGAT | 3.73 |
| CGCCTCTAGT | 1.03 |
| CGTGAATAGG | 0.971 |
| CATAGATAGT | 0.991 |
| ACGCAACCTT | 1.46 |
| GGAAAAGTAG | 0.992 |
| TTAAGGAGG | 0.992 |
| GCACGGCTAA | 1.02 |
| AGCATCTTGC | 0.969 |
| CGAACTCTAG | 1.04 |
| TGCTTTAGAT | 1.03 |

| Sequence | switch fluorescence ratio |
| --- | --- |
| TACAGCGGA | 1.04 |
| CAATGATGGT | 1.01 |
| CCGGGTCGCT | 1.02 |
| GATGTGTGTC | 0.981 |
| GAGCGATAAA | 1.02 |
| GGTGTACTTG | 1.01 |
| TACATCCACC | 1.19 |
| TCAATTGGGC | 0.939 |
| GCGTTCGGGG | 1.04 |
| ATTCTAAGAG | 0.993 |
| GGGTCCTGTG | 1 |
| CGTTGATTTT | 0.991 |
| ACGACGTCGA | 1.08 |
| CTTACAGGCT | 0.975 |
| AGGCTATGAC | 1.01 |
| ACATTAGGTG | 1.34 |
| CGGTGGGTT | 1 |
| GTGTTAGAAA | 0.987 |
| ATTGTGAGAT | 0.979 |
| GCAGTTACCG | 1 |
| TAGGTATTTG | 0.978 |
| AAGTTGTCC | 0.953 |
| TAGTGTGAGC | 1.01 |
| TCATTGCGCG | 1.06 |
| AACTTCCCT | 1.05 |
| GACGCGTACC | 3.19 |

| Sequence | switch fluorescence ratio |
| --- | --- |
| AGTGTCTAAA | 0.958 |
| TGGCGTAGTC | 1.22 |
| GGTGATACCT | 1.13 |
| AGCGTACAGT | 1.13 |
| CGCAGGAGCT | 1.06 |
| CGGCGACCAG | 0.984 |
| ATATTTGTTC | 1.05 |
| ATACAAGAGG | 0.992 |
| ACTGATGCGG | 1.01 |
| AGGTTATAAC | 0.948 |
| GGTGGTTTGT | 1 |
| CAAAGGGGCC | 1.07 |
| GGTAGCGATT | 1.03 |
| CTTAGGTATG | 0.993 |
| TCCCTAAACG | 1.14 |
| ACCAGAAC | 1.04 |
| GCCACCGACC | 1.5 |
| CGGGTCTAAT | 0.947 |
| CCAATCTTTT | 1.02 |
